Data as given in paper PMC4336329 (PLoS ONE, 2015).
In all, about 310,000 compounds went through this assay and about 14,000 (4.5%) showed an effect of 50% or more. Effects have a minus sign here. The list shows a part of the results.

target: human ether-à-go-go-related gene (hERG) potassium channel (human, UniProt Q12809); assay: primary screen, population patch clamp on CHO cells stably expressing hERG
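Further: peak tail current of the secondary pulse compared with the same well before compound.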

human ether-à-go-go-related gene (hERG) potassium channel, sequence (Q12809 whole entry, looked up): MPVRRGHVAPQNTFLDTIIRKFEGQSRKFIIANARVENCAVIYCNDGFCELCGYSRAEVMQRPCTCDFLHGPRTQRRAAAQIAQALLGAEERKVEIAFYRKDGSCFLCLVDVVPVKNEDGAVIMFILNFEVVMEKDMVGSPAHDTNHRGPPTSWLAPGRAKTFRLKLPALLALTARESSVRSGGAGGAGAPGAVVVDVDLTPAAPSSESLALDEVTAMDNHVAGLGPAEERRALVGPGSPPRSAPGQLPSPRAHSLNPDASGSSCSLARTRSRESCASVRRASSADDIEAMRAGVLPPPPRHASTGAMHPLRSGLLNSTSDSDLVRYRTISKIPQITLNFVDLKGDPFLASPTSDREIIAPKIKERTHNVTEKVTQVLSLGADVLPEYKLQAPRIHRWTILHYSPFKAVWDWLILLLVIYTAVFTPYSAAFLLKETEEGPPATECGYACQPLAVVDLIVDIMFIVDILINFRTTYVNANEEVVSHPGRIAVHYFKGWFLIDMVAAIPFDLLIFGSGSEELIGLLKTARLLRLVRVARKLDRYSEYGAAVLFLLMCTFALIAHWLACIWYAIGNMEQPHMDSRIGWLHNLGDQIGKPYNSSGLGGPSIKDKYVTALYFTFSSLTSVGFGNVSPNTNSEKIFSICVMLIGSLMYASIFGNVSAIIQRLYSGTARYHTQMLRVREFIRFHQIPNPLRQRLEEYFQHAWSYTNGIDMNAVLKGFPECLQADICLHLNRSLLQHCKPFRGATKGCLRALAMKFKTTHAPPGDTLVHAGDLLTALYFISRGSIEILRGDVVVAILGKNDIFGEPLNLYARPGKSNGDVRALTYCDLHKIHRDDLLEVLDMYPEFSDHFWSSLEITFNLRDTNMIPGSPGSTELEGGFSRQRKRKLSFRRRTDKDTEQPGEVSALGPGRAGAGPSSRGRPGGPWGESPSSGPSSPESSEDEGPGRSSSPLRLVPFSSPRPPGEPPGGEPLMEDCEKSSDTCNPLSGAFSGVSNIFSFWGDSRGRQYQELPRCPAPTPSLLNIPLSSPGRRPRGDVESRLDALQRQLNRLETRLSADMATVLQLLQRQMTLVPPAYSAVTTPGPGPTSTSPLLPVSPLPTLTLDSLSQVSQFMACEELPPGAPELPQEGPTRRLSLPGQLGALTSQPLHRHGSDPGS

First: COC(=O)c1cccc(-n2c(=O)n(Cc3ccccc3)c(=O)c3[nH]cnc32)c1C
Second: CCn1c(C)cc(/C=C2\NC(=O)N(Cc3ccccc3)C2=O)c1C
The “hERG current change (%, negative = inhibition) at 10uM” value of the first is lower: -4.15% for the first, 12.9% for the second.

First: Cc1ccc(S(=O)(=O)N2CCN(C(=O)c3cc(=O)c4ccccc4o3)CC2)cc1
Second: COc1ccc(S(=O)(=O)N2CCN(C)CC2)cc1NC(=O)c1ccccc1
The “hERG current change (%, negative = inhibition) at 10uM” value of the first is lower: -55% for the first, -38.8% for the second.

Compared with C#CCOCCOCCOCCNc1nc(N2CCN(C(=O)[C@H](C(C)C)n3cc(CCO)nn3)CC2)nc(N2CCN(C(=O)[C@H](CCCC[NH3+])n3cc(CCCC)nn3)CC2)n1.[Cl-], CC(=O)NC(CC(=O)OCC(=O)N1CCN(S(=O)(=O)c2ccc(C)cc2C)CC1)c1ccccc1 (stereo not shown) is lower in “hERG current change (%, negative = inhibition) at 10uM” value: 1.61% for the first, -25.7% for the second.

Going from Cc1cc(C)c(NC(=O)c2sc3nc4c(cc3c2N)C(=O)CC(C)(C)C4)c(C)c1 to CCOC(=O)c1c(NC(=O)CSc2nc3ccccc3o2)sc(C(C)=O)c1C, the “hERG current change (%, negative = inhibition) at 10uM” value rises from 3.58% to 12.4%.

Going from Cc1csc(NC(=O)C2CCCN(S(=O)(=O)c3ccc(Br)s3)C2)n1 (stereo not shown) to CC1CCN(S(=O)(=O)c2cn(CC(=O)Nc3cccc(C#N)c3)cn2)CC1, the “hERG current change (%, negative = inhibition) at 10uM” value rises from -12% to 12.7%.

First: CC(C)c1ccccc1NC(=O)CN1C(=O)c2ccccc2C1=O
Second: CC(C)(C)NC(=O)c1cccc2c1C(=O)c1ccccc1-2
The “hERG current change (%, negative = inhibition) at 10uM” value of the first is lower: -0.723% for the first, 1.66% for the second.

Compared with Oc1cc2c(cc1CN1CCN(c3ccccc3)CC1)OCO2, CCOC(=O)N1CCN(c2ccc(F)cc2[N+](=O)[O-])CC1 is lower in “hERG current change (%, negative = inhibition) at 10uM” value: 14.2% for the first, -10.5% for the second.

Going from COc1cccc2cc(-c3nnc(SCC(=O)Nc4ccc(NC(C)=O)cc4)n3C)oc12 to CC(=O)N[C@@H](Cc1c[nH]c2ccccc12)C(=O)OCC(=O)Nc1ccc(S(=O)(=O)N(C)C)cc1, the “hERG current change (%, negative = inhibition) at 10uM” value falls from 25.4% to 7.77%.

First: NC(=O)CCN(C1CCCCC1)S(=O)(=O)c1cccc2nsnc12
Second: COc1ccc(CC(=O)OCC(=O)N(C)C2CCS(=O)(=O)C2)cc1OC (stereo not shown)
The “hERG current change (%, negative = inhibition) at 10uM” value of the first is higher: 10.5% for the first, 8.3% for the second.

Going from CC1Cc2ccccc2N1S(=O)(=O)c1cccc(C(=O)NNC(=O)c2ccccc2F)c1 (stereo not shown) to COc1ccc(NS(=O)(=O)c2ccc(Oc3cccc(C(=O)O)c3)cc2)cc1, the “hERG current change (%, negative = inhibition) at 10uM” value rises from -12.3% to 24.3%.

Compared with COc1ccc(NC(=O)C2CCOC(C)(C)C2)cc1 (stereo not shown), COC(=O)c1sccc1NC(=S)Nc1ccc(OC)cc1 is lower in “hERG current change (%, negative = inhibition) at 10uM” value: 16.2% for the first, 12.6% for the second.

Going from Cc1ccc(/C=C2/Sc3ccc(C(=O)N4CCC5(CC4)OCCO5)cc3NC2=O)cc1 to Cc1cccc(NC(=O)c2cc(N3C(=O)CCC3=O)ccc2Cl)n1, the “hERG current change (%, negative = inhibition) at 10uM” value falls from 16.1% to 4.41%.

First: COc1ccc(NC(=O)C2CCC(CNc3c(N4CCCCC4)c(=O)c3=O)CC2)c(OC)c1 (stereo not shown)
Second: Cl.c1ccc(N2CCCCC2)c(NC2=NCCC2)c1
The “hERG current change (%, negative = inhibition) at 10uM” value of the first is higher: 9.23% for the first, -15.5% for the second.

Compared with CC(=O)c1c(C)n([O-])c2ccc(C)cc2[n+]1=O, CC(=O)Oc1ccc2c(c1)c(C(C)=O)c(C)n2C is higher in “hERG current change (%, negative = inhibition) at 10uM” value: -1.91% for the first, 5.27% for the second.

Going from COc1cc(-c2nnc3sc(Cc4ccc(Cl)cc4)nn23)cc(OC)c1OC to COc1ccc(-c2nc3scc(-c4ccc(OC)c(OC)c4)c3c(=O)o2)cc1, the “hERG current change (%, negative = inhibition) at 10uM” value rises from 5.28% to 5.49%.

Going from COc1cccc(CNC(=O)Cn2nc([N+](=O)[O-])c(Br)c2C)c1 to COC(=O)C1=C(C)N(c2cccc(Cl)c2)C(=O)C1, the “hERG current change (%, negative = inhibition) at 10uM” value rises from 1.3% to 9.01%.

Compared with Cc1ccc(S(=O)(=O)N(CC(=O)Nc2cccc([N+](=O)[O-])c2)Cc2ccc(Cl)cc2)cc1, Cc1ccc(CCNC(=O)CN(c2ccc(C)cc2)S(=O)(=O)c2c(C)noc2C)cc1 is lower in “hERG current change (%, negative = inhibition) at 10uM” value: 10.2% for the first, 7.5% for the second.

Compared with Cc1c(Cc2ccccc2)c(=O)oc2cc(OCC(=O)NCC(O)c3ccccc3)ccc12 (stereo not shown), CCOC(=O)c1ccc[n+](C(C)C(=O)c2ccc(-c3ccccc3)cc2)c1.[Br-] (stereo not shown) is lower in “hERG current change (%, negative = inhibition) at 10uM” value: 28.7% for the first, -21.3% for the second.

First: COC(C[C@@H]1O[C@@H]1[C@H](O)[C@@H](C)OCc1ccccc1)OC
Second: Cc1ccccc1NC(=O)CSCc1nc(N)nc(Nc2ccccc2C)n1
The “hERG current change (%, negative = inhibition) at 10uM” value of the first is lower: -6.42% for the first, -1.57% for the second.

Going from O=C1CC(c2ccc(F)cc2)C(n2cncn2)C(O)=C1C1NCCc2ccccc21 (stereo not shown) to C=CCN(C(=O)c1csnn1)C(C(=O)NCc1ccc(F)cc1)c1sccc1C (stereo not shown), the “hERG current change (%, negative = inhibition) at 10uM” value falls from 10.6% to -20.4%.

First: CCS(=O)(=O)N1CCC(C(=O)NCCN2CCOCC2)CC1
Second: Brc1cnc(N2CCCC2)nc1N1CCCCC1
The “hERG current change (%, negative = inhibition) at 10uM” value of the first is lower: 3.01% for the first, 3.49% for the second.

For CN1C(=O)N(C)C(=O)C2(Sc3ccccc3C2=O)C1=O, the “hERG current change (%, negative = inhibition) at 10uM” value was -1.41%.
